In the supplement of paper PMC8183993:
Counter-ions that a name gives are not always drawn. ± gives the standard deviation of the averaged measurements. Over roughly 3,200 compounds, “nuclei count (viability) relative to DMSO” has its median near 99; the lowest 2% begin near 16. The list shows a part of the results.

system: U2OS; assay: nuclei count (viability) relative to DMSO (% of DMSO); higher = more viable cells; details: 10 µM; 24 h
Experimental: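 Primary image-based screen in U2OS cells: compounds at 10 uM for 24 h, then a 1 h o-propargyl-puromycin (OPP) pulse, click labelling, and high-throughput microscopy. Mean cytoplasmic OPP intensity and nuclei count were normalised to DMSO wells within each plate (DMSO = 100) and averaged over triplicate plates.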

Compound	nuclei count
O=C(O)C1=CCCN(CCON=C(c2ccccc2)c2ccccc2)C1	98.8
c1ccc(CN(CC2=NCCN2)c2ccccc2)cc1 [Antazoline hydrochloride]	89.7 ± 6.5
CC[C@H](C)C[C@H](C)CCCCCCCCC(=O)N[C@H]1C[C@@H](O)[C@@H](NCCN)NC(=O)[C@@H]2[C@@H](O)CCN2C(=O)[C@H]([C@H](O)CCN)NC(=O)[C@H]([C@H](O)[C@@H](O)c2ccc(O)cc2)NC(=O)[C@@H]2C[C@@H](O)CN2C(=O)[C@H]([C@@H](C)O)NC1=O [Caspofungin Acetate]	101
Nc1ncnc2n[nH]c(Nc3ccc(F)cc3)c12	73.5
CC(=O)N(CC(O)CN(C(C)=O)c1c(I)c(C(=O)NCC(O)CO)c(I)c(C(=O)NCC(O)CO)c1I)c1c(I)c(C(=O)NCC(O)CO)c(I)c(C(=O)NCC(O)CO)c1I (configuration not stated) [Iodixanol]	111
CC(C(=O)O)c1ccc(C(=O)c2ccccc2)s1 (configuration not stated) [Tiaprofenic acid]	103
CCCCC[C@H](O)/C=C/C=C\CCCCCCCC(=O)O [13(S)-Hydroxy-9Z,11E-octadecadienoic acid]	94.5
CN1C(C(=O)Nc2ccccn2)=C(O)c2sccc2S1(=O)=O [Tenoxicam]	105
Cc1ncc([N+](=O)[O-])n1CC(O)CCl (configuration not stated) [Ornidazole]	96.6
NC(=O)N1c2ccccc2CC(O)c2ccccc21 (configuration not stated) [Licarbazepine]	104
Cc1cccc(C)c1NC(=O)C1CCCCN1C (configuration not stated) [Mepivacaine hydrochloride]	102
CCc1nc(-c2cccc(C)c2)c(-c2ccnc(NC(=O)c3ccccc3)c2)s1	91.8 ± 6.9
CNC(=O)[C@H]1O[C@@H](n2cnc3c(NCc4cccc(I)c4)ncnc32)[C@H](O)[C@@H]1O	105
C=C[C@H]1CN2CC[C@H]1C[C@@H]2[C@@H](O)c1ccnc2ccc(OC)cc12 [Quinidine hydrochloride monohydrate]	96.1
C[C@]12CC[C@H]3C(=CCc4cc(O)ccc43)[C@@H]1CCC2=O [Equilin]	93.1
CCN(C(=O)CO)[C@H]1CN(/C(=N\C#N)Nc2cccc(OC(F)F)c2)N=C1c1ccc(Cl)c(Cl)c1	111
CN(C)CCC=C1c2ccccc2CCc2ccccc21 [Amitryptiline hydrochloride]	92.5
Cc1ccnc2c1NC(=O)c1cccnc1N2C1CC1 [Nevirapine (Viramune)]	111
Cc1[nH]c(=O)c(C#N)cc1-c1ccncc1 [Milrinone]	104
CC(C)[C@H](CO)Nc1nc(Nc2cccc(Cl)c2)c2ncn(C(C)C)c2n1 [Purvalanol A]	48.7
CS(=O)(=O)c1ccc(C2=C(c3ccccc3)C(=O)OC2)cc1 [Rofecoxib]	108
Cn1c(=O)c2[nH]cnc2n(C)c1=O [Aminophylline]	108
O=C(CCCCCCC(=O)NO)NO [Suberoyl bis-hydroxamic acid]	98.2
COc1ccc([C@H]2CNC(=O)C2)cc1OC1CCCC1 [(S)-(+)-Rolipram]	101

Compound	nuclei count
COc1ccc([C@H]2CNC(=O)C2)cc1OC1CCCC1 [S- (+)-Rolipram]	101
CCN(CC)CCOC(=O)C(c1ccccc1)C1CCCCC1 (configuration not stated) [Drofenine hydrochloride]	108
COc1cc2c(cc1OC)CN(CCc1ccc(NC(=O)c3cc(OC)c(OC)cc3NC(=O)c3cnc4ccccc4c3)cc1)CC2 [Tariquidar]	96.8
FC(F)(F)c1cc(COC2CCCNC2c2ccccc2)cc(C(F)(F)F)c1 [L-733,060 hydrochloride]	97.6
CN(C(=O)c1ccc(F)cc1C(F)(F)F)C1CCN(c2nnc(-c3ccnn3C)c3ccccc23)CC1	101
COc1cc(Cc2cnc(N)nc2N)cc(OC)c1OC [Trimethoprim]	109
CN1CCC(c2c(O)cc(O)c3c(=O)cc(-c4ccccc4Cl)oc23)C(O)C1 (configuration not stated) [Flavopiridol (Alvocidib) HCl]	36.8
CO[C@@]1(NC(=O)Cc2cccs2)C(=O)N2C(C(=O)O)=C(COC(N)=O)CS[C@@H]21 [Cefoxitin sodium salt]	93.2
CC(=O)c1ccc2c(c1)N(CCCN1CCC(CCO)CC1)c1ccccc1S2 [Piperacetazine]	88.2
COc1ccccc1-c1cc(Nc2cccc(CS(N)(=O)=O)c2)ncn1	58.5
CC1(COc2ccc3c(c2)ncn3-c2ccc3cccc(N4CCC(N)CC4)c3n2)COC1	36.9
CNCC[C@H](Oc1cccc2ccccc12)c1cccs1 [Duloxetine HCl (Cymbalta)]	95.7
C[C@@H](Oc1cc(-n2cnc3ccc(CN4CCN(C)CC4)cc32)sc1C(N)=O)c1ccccc1C(F)(F)F	32.2
O=C(CCCN1CCC(O)(c2ccc(Br)cc2)CC1)c1ccc(F)cc1 [Bromperidol]	95
COc1cc2c(cc1OC)C(=O)C(CC1CCN(Cc3ccccc3)CC1)C2 (configuration not stated) [Donepezil HCl (Aricept)]	113
CCCCC(CC)CN1CN(CC(CC)CCCC)CC(C)(N)C1 (configuration not stated) [Hexetidine]	106
C=CC(=O)c1ccc2ccccc2c1	105
NS(=O)(=O)c1cccc2c1c([N+](=O)[O-])cc1nc(O)c(O)nc12	98.7
NS(=O)(=O)c1cccc2c1c([N+](=O)[O-])cc1nc(O)c(O)nc12 [NBQX disodium salt]	109
N#CC(=C(/N)Sc1ccccc1N)/C(C#N)=C(/N)Sc1ccccc1N	102
CC(C)(C)C(=O)OCOC(=O)[C@@H]1N2C(=O)[C@@H](NC(=O)[C@H](N)c3ccccc3)[C@H]2SC1(C)C [Pivampicillin]	91.2
CC1(C)Oc2ccc(C#N)cc2[C@H](N2CCCC2=O)[C@H]1O [Cromakalim]	89.8
CCCCOc1c(C(=O)c2c(F)cc(C)cc2F)c[nH]c2nncc1-2	83.2 ± 20
CCC(=O)N1CCOc2c(cc(-c3ccc(OC)c(OC)c3)cc2OC[C@H]2CCCN(C)C2)C1	96.7

Compound	nuclei count
O=C1NCN(c2ccccc2)C12CCN(CCCC(c1ccc(F)cc1)c1ccc(F)cc1)CC2 [Fluspirilene]	91.5 ± 13
O=C1NCN(c2ccccc2)C12CCN(CCCC(c1ccc(F)cc1)c1ccc(F)cc1)CC2 [Fluspirilen]	89.1
Nc1ccccc1NC(=O)c1ccc(CNC(=O)OCc2cccnc2)cc1 [Entinostat (MS-275, SNDX-275)]	59.6
COc1cccc(OC)c1OCCNCC1COc2ccccc2O1 (configuration not stated) [WB 4101 hydrochloride]	104
N=C(N)NC(=O)c1nc(Cl)c(N)nc1N [Amiloride hydrochloride]	89.8
N=C(N)NC(=O)c1nc(Cl)c(N)nc1N [Amiloride hydrochloride dihydrate]	105
O=[N+]([O-])c1cccc2c(Br)[nH]nc12 [3-Bromo-7-nitroindazole]	102
CN(C)C(=O)COC(=O)Cc1ccc(OC(=O)c2ccc(NC(=N)N)cc2)cc1 [Camostat Mesilate (FOY-305)]	98.4
CC(Cc1ccccc1)(NC(=O)CN)c1ccccc1 (configuration not stated) [Remacemide hydrochloride]	94.6
CCCCOC(=O)c1ccc(N)cc1 [Butamben]	106
CN(C)CC[C@H](CSc1ccccc1)Nc1ccc(S(=O)(=O)NC(=O)c2ccc(N3CCN(Cc4ccccc4-c4ccc(Cl)cc4)CC3)cc2)cc1[N+](=O)[O-]	73.8
C[C@H]1COC2=C1C(=O)C(=O)c1c2ccc2c1CCCC2(C)C [Cryptotanshinone]	99.4
NC(=O)Cc1cccc(C(=O)c2ccccc2)c1N [Nepafenac]	106
CCCCC1=NC2(CCCC2)C(=O)N1Cc1ccc(-c2ccccc2-c2nnn[nH]2)cc1 [Irbesartan (Avapro)]	101
CC1(C)OC2=C(C(=O)c3ccccc3C2=O)[C@H](NCc2ccccc2)[C@@H]1O	14.7
O=[N+]([O-])c1ccc2c(c1)S(=O)(=O)C=C2 [Stattic]	14.1
N[C@@H]1CCCCN(c2c(F)cc3c(=O)c(C(=O)O)cn(C4CC4)c3c2Cl)C1 [Besifloxacin HCl (Besivance)]	95.8
CCOc1ccccc1OCC1CNCCO1 (configuration not stated) [Viloxazine hydrochloride]	99.8
CC[C@H]1OC(=O)[C@H](C)[C@@H](O[C@H]2C[C@@](C)(OC)[C@@H](O)[C@H](C)O2)[C@H](C)[C@@H](O[C@@H]2O[C@H](C)C[C@H](N(C)C)[C@H]2O)[C@](C)(OC)C[C@@H](C)C(=O)[C@H](C)[C@@H](O)[C@]1(C)O [Clarithromycin (Biaxin, Klacid)]	108
CC[C@H]1OC(=O)[C@H](C)[C@@H](O[C@H]2C[C@@](C)(OC)[C@@H](O)[C@H](C)O2)[C@H](C)[C@@H](O[C@@H]2O[C@H](C)C[C@H](N(C)C)[C@H]2O)[C@](C)(OC)C[C@@H](C)C(=O)[C@H](C)[C@@H](O)[C@]1(C)O [Clarithromycin]	105
CNC(=O)[C@@H](Cc1ccccc1)N(C)C(=O)[C@@H](Cc1ccc2ccccc2c1)N(C)C(=O)/C=C/CC(C)(C)N [Tabimorelin]	101
NS(=O)(=O)c1cc2c(cc1Cl)N=CNS2(=O)=O [Chlorothiazide]	99.6
CN[C@H](CC(C)C)C(=O)N[C@H]1C(=O)N[C@@H](CC(N)=O)C(=O)N[C@H]2C(=O)N[C@H]3C(=O)N[C@H](C(=O)N[C@H](C(=O)O)c4cc(O)cc(O)c4-c4cc3ccc4O)[C@H](O)c3ccc(c(Cl)c3)Oc3cc2cc(c3O[C@@H]2O[C@H](CO)[C@@H](O)[C@H](O)[C@H]2O[C@H]2C[C@](C)(N)[C@H](O)[C@H](C)O2)Oc2ccc(cc2Cl)[C@H]1O [Vancomycin HCl (Vancocin)]	97.5
CN[C@H](CC(C)C)C(=O)N[C@H]1C(=O)N[C@@H](CC(N)=O)C(=O)N[C@H]2C(=O)N[C@H]3C(=O)N[C@H](C(=O)N[C@H](C(=O)O)c4cc(O)cc(O)c4-c4cc3ccc4O)[C@H](O)c3ccc(c(Cl)c3)Oc3cc2cc(c3O[C@@H]2O[C@H](CO)[C@@H](O)[C@H](O)[C@H]2O[C@H]2C[C@](C)(N)[C@H](O)[C@H](C)O2)Oc2ccc(cc2Cl)[C@H]1O [Vancomycin hydrochloride]	102
